In article PMC4336329 (PLoS ONE, 2015):
Hit rate of the full screen: of about 310,000 compounds, about 2,200 (0.71%) showed an effect of 50% or more. The effect is printed as a negative number. The list shows a part of the results.

target: human ether-à-go-go-related gene (hERG) potassium channel (human, UniProt Q12809); experiment: primary screen, population patch clamp on CHO cells stably expressing hERG
Sequence (Q12809 whole entry, looked up): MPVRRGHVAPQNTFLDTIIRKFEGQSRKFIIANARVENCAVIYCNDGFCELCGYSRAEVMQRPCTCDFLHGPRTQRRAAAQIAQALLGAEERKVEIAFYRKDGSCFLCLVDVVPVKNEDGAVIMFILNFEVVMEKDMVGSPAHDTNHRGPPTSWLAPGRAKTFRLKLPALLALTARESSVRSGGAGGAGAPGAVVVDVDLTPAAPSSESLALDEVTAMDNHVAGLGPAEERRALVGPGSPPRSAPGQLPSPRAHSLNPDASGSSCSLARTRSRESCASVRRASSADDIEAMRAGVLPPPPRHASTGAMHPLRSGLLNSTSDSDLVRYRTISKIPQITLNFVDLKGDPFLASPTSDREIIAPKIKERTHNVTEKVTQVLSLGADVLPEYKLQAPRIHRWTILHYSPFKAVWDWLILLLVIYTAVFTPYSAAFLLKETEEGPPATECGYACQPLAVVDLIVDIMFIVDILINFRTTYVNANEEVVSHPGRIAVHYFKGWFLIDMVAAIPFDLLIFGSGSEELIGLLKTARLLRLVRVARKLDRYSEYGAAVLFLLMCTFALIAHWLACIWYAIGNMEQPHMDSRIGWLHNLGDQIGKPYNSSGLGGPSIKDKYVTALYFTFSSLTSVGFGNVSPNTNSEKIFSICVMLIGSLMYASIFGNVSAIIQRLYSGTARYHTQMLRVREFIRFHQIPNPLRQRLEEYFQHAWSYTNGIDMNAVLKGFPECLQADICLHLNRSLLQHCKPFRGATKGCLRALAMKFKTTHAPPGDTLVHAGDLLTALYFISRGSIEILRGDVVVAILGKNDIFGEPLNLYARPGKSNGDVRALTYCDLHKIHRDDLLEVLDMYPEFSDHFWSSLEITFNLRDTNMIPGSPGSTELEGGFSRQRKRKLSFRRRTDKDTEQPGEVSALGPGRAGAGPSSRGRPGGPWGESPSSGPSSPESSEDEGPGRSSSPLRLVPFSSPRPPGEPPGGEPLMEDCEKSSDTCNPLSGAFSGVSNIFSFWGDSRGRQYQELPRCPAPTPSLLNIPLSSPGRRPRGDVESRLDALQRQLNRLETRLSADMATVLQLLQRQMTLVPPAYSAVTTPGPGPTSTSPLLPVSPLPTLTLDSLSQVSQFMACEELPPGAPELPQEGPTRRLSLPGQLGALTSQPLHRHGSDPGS

SMILES	hERG current change (%, negative = inhibition) at 1uM
Cl.Cn1cc(C(=O)NCN2CCCCC2)c2ccccc21	14%
CCOP(=O)(OCC)C(NC(=O)Nc1ccc(Cl)c(Cl)c1)c1ccccc1 (stereo not shown)	7.76%
CCOc1cccc(C2C(C(=O)c3cccs3)=C(O)C(=O)N2Cc2cccnc2)c1 (stereo not shown)	17.4%
C=CCn1c(COc2ccc(F)cc2)nnc1SCC(=O)N1CC(=O)Nc2ccccc21	-12%
CCOc1ccc(-c2nnn(CC(=O)Nc3cc(OC)cc(OC)c3)n2)cc1OCC	18.5%
CCCCCCCCCCCCCCCC[N+](C)(C)CCN(Cc1ccc(OC)cc1)c1ncccn1.[Br-]	-61.5%
COc1ccc(OC)c(/C=N/NC(=O)CNC(=O)c2ccc(S(=O)(=O)N3CCCC3)cc2)c1	-18.4%
COc1ccc(N2CC(C(=O)NCc3nnnn3-c3ccc(C)c(C)c3)CC2=O)cc1 (stereo not shown)	11%
COc1ccc(-c2cnnc(N/N=C/c3ccc(OC)c(OC)c3)n2)cc1	2.27%
CCCn1c(SCC(=O)N2CCCCC2)nnc1-c1ccco1	10.3%
CCCn1nc(NC(=O)c2cccs2)c2cc3ccc(C)cc3nc21	14.7%
CCCCn1c(SCC(=O)NCc2ccccc2)nc2ccc(N3CCOCC3)cc2c1=O	-8.59%
C/C=C/Cn1c(SCc2ccccc2)nc2c1c(=O)[nH]c(=O)n2C	8.77%
CCn1nc(NS(=O)(=O)c2ccccc2)c2cc3ccccc3nc21	11.9%
Cc1ccccc1NC(=O)C1CC(=O)OC12CCOC(C)(C)C2 (stereo not shown)	10.3%
CCOC(=O)C1=C(C)NC(=O)C(C#N)C1c1ccncc1 (stereo not shown)	-1.54%
CCc1cccc(NC(=O)c2ccc(Br)o2)c1	-12.2%
CCOC(=O)C1CCN(C(=O)CN2C(=O)c3cccnc3Oc3ccc(C)cc32)CC1	-3.14%
O=C(Nc1ccc(F)cc1F)N1CCC(c2nc3ccccc3o2)CC1	2.73%
C=CCc1c(C)[nH]c(=O)[nH]c1=O	10.4%
O=C(Nc1ccc(C(=O)N2CCCCC2)cc1)c1ccc([N+](=O)[O-])cc1	9.11%
Cc1cc(C)n2nc(C(=O)NNC(=O)c3ccccc3)nc2n1	9.78%

SMILES	hERG current change (%, negative = inhibition) at 1uM
CCCN(CCC)S(=O)(=O)c1ccc(C(=O)Nc2cccnc2)cc1	16.2%
COCC1CCCCC1OS(N)(=O)=O (stereo not shown)	8.97%
Cc1cccc(C)c1NC(=O)/C(C#N)=C/c1ccsc1	13.1%
COc1ccc(C2(c3ccc(OC)cc3)NC(=O)NC2=O)cc1	8.6%
O=C(CC1SC2=NCCN2C1=O)Nc1ccc(Br)cc1 (stereo not shown)	7.38%
CC(=O)N(Cc1ccc(Cl)cc1)c1cnccn1	16.8%
O=C(COC(=O)c1cccc(S(=O)(=O)N2CCN(c3ccccc3)CC2)c1)NCC1CCCO1 (stereo not shown)	10.3%
N[C@@]1(C(=O)O)CC[C@@H](C(=O)O)C1.O	8.45%
CCN(c1ccccc1)S(=O)(=O)c1cccc(C(=O)N2CCN(S(=O)(=O)c3ccccc3)CC2)c1	7.08%
Cc1ncc([N+](=O)[O-])n1CC(=O)N/N=C/c1ccc(F)cc1	-2.69%
Cn1nc(-c2ccccc2)c2cc(C(=O)O)sc21	22.5%
CCOC(=O)c1nnn(-c2ccccc2)c1C	-7.79%
CC(=O)NC1(c2nnnn2CCOC(=O)Nc2ccc(Cl)cc2)CCCC1	4.85%
CCOC(=O)C1CCCN(C(=O)Cn2cccc2C(=O)c2ccccc2)C1 (stereo not shown)	-7.46%
COC(=O)CSc1nc(C)c(C)c(C)c1C(N)=O	1.4%
COCCCNC(=O)CCCn1c(=O)[nH]c2ccccc2c1=O	14.9%
O=C(O)c1ccc2[nH]c3c(c2c1)CCCC3	15.2%
CC1=CC(=O)C(C(C)=Nc2ccccc2Cl)C(=O)O1 (stereo not shown)	-4.74%
O=C(/C=C/c1ccccc1)N/C(=C/c1ccccc1)C(=O)Nc1ccccc1O	-5.04%
O=c1c(Cc2c(F)cccc2Cl)c(O)ccn1Cc1ccc(F)cc1	1.36%
Cc1ccc(NC(=O)CN2CCC(Cc3ccccc3)CC2)cc1S(=O)(=O)N(C)C.O=C(O)C(=O)O	20.2%
CCN(CC)S(=O)(=O)c1ccc(N2CCN(c3cccc(OC)c3)CC2)c([N+](=O)[O-])c1	5.03%

SMILES	hERG current change (%, negative = inhibition) at 1uM
Cc1ccc(Nc2ncnc3sccc23)c(C)c1	10.5%
COc1ccc2oc(-c3ccccc3[N+](=O)[O-])cc(=O)c2c1	4.52%
COc1ccc(NC(=O)COc2ccc(/C=C/c3cc[n+](C)cc3)cc2OC)cc1.[I-]	17.7%
COc1ccc(NC(=O)/C=C/C(=O)O)c(OC)c1	13.5%
Cc1ccc(/C(N)=N/OC(=O)c2ccc3ccccc3c2)cc1	6.7%
COc1ccccc1N1CCN(Cc2cc(=O)c(OCC#N)co2)CC1	12.4%
Cc1ccc(N(CC(N)=O)C2SC(=O)N(Cc3cccc(C(=O)O)c3)C2=O)cc1 (stereo not shown)	15.2%
Cn1c(=O)[nH]c(=O)c2c1nc(N1CCCCCC1)n2CCSc1nc2ccccc2[nH]1	7.44%
Cc1cc(C(=O)Nc2cccc3ncccc23)no1	10.2%
Nc1nonc1C(=O)N/N=C/c1ccncc1	2.6%
CCCNS(=O)(=O)c1ccc(NC(=O)c2ccccn2)cc1	-3.45%
O=C(CCCOc1ccc(Cl)cc1)Nc1nncs1	-12.5%
CCCCc1cc(=O)oc2cc(C)c(CN3CCCC3)c(O)c12	-7.77%
COC(=O)N/N=C1/C/C(=N\NC(=O)OC)c2ccccc21	10.5%
CS(=O)(=O)c1ccc(C(=O)CN2C(=O)NC3(CCCc4ccccc43)C2=O)cc1 (stereo not shown)	4.03%
COc1ccc(-c2csc(NC(=O)CCNC(=O)c3ccco3)n2)cc1OC	-3.11%
Nc1nc(SCc2ccc(Br)cc2)[nH]c(=O)c1-c1ccccc1	9.34%
CCN(CC(=O)NCc1cccs1)S(=O)(=O)c1ccc(NC(C)=O)cc1	6.09%
CCN(CC)CCNC(=O)c1ccc(NC(=O)CC(NC(=O)c2ccccc2Cl)c2ccccc2)cc1 (stereo not shown)	14.6%
COC(=O)CSc1nc(C)c(C(=O)Nc2ccccc2C)c(-c2ccc(Cl)cc2)c1C#N	11.6%
CCOc1ccc(/C=C2\SC(=S)N(CC(=O)NCCCN3CCOCC3)C2=O)cc1	5.32%
COc1ccc(NC(=O)c2cc(-c3ccc(C)cc3O)n[nH]2)c(OC)c1	13.4%

SMILES	hERG current change (%, negative = inhibition) at 1uM
COc1ccc(Nc2c3c(nc4ccccc24)CCC3)c(OC)c1	-27.8%
CCOc1ccc(Cc2onc3c2C(=O)CC(C)(C)C3)cc1OCC	4.63%
CCOC(=O)c1ccccc1N1C(=O)C2Sc3[nH]c(=O)sc3C(/C=C/c3ccccc3)C2C1=O (stereo not shown)	11.1%
CCOc1ccc(NC2CCN(C(C)=O)CC2)cc1	13%
COc1ccc(NC(=O)CSc2nnc(-c3cccnc3)n2C)cc1	12.9%
Cc1cccc(C)c1NC(=O)c1c(O)c2ccccc2[nH]c1=O	15.5%
O=C(c1ccc(Cl)cc1)c1cc(-c2ccccn2)c(N2CCOCC2)s1	7.35%
CC(C(=O)NCCc1ccc(S(N)(=O)=O)cc1)N1C(=O)CC(C)(C)Sc2ccccc21 (stereo not shown)	3.02%
O=C(Nc1ccccn1)c1ccc2c(c1)OCCO2	9.35%
Cc1cc(C)c(NC(=O)C2CCCN2CCO)c(C)c1 (stereo not shown)	-9.41%
Cc1cc(C(=O)COC(=O)C2=NNC(=O)CC2)c(C)n1-c1cccc(C(F)(F)F)c1	0.965%
CC(C)CC(NC(=O)c1ccc(Cl)cc1Cl)C(=O)O (stereo not shown)	8.36%
CN(C)C(CNC(=O)c1cccc(S(=O)(=O)Nc2ccc(Br)cc2)c1)c1ccco1 (stereo not shown)	5.02%
COc1ccc(CNC(=O)CN(c2cccc([N+](=O)[O-])c2)S(C)(=O)=O)cc1	8.45%
CC(C)CCC(CCN1CCCC1)c1ccc2c(c1)OCO2.O=C(O)C(=O)O (stereo not shown)	-83.3%
O=C(NC1CCN(Cc2ccccc2)CC1)c1ccc(Cn2c(=S)[nH]c3ccc(N4CCOCC4)cc3c2=O)cc1	4.15%
O=C(Nc1ccccc1)/C(=C/c1ccc([N+](=O)[O-])cc1)NC(=O)c1ccccc1	12.9%
Cc1cccc2cc(-c3nc4c(C)cccn4c3NCc3ccco3)c(=O)[nH]c12	2.58%
Cc1cccc(N2CCN(C(=O)c3ccoc3C)CC2)c1C	-0.478%
Cc1c(Cl)cccc1NC(=S)N1CCC(N(C)CC2CCCO2)CC1 (stereo not shown)	11.6%
Cc1ccc(S(=O)(=O)N2CCOCC2)cc1C(=O)OCCOc1cccc(Cl)c1	11.6%
COc1ccc(CNC(=O)CN2C(=O)c3ccc([N+](=O)[O-])cc3C2=O)cc1	12%
